± gives the standard deviation of the averaged measurements. Some of the results follow.

The test system of the experiment is PfAP2-EXP AP2 domain (GST-tagged). The experiment can be described thus: gcPBM binding intensity (ln(normalized median fluorescence intensity)); higher = stronger DNA binding. The method in brief:
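For binding intensity, the highest Masliner-normalised natural-log median intensity across replicate spots of either probe orientation was taken. Protein bound to the array was stained with Alexa488 anti-GST antibody and scanned at 488 nm. The protein, GST-tagged P. falciparum DNA-binding domains from E. coli at about 25 μg on average, had been applied for 1 h to an Agilent 4 × 180k array of primer-extended double-stranded 36-bp intergenic genomic probes and negative controls.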
With “ATGTATATATTCAATTGTACATGTTATATTTACACA [XGTACX_site1125]”, the “gcPBM binding intensity (ln)” value amounted to 8.47 ± 0.46.

In the case of TGTAAAATATAAAAAGTGCATTTCTTTTAATATGAT, the “gcPBM binding intensity (ln)” value is 8.49 ± 0.24.

Take “AAAGAATAATTAAATACACACATATTGCAGTAAAAA [CACACA_site7201]”: the “gcPBM binding intensity (ln)” value is 8.66 ± 0.38. To “CAATTGATATTGAAATGTACTTTTTAGATGAACCTT [XGTACX_site2354]” belongs 8.35 ± 0.49. Take “TTAAATAATGCCACCAGTACCCACTGAAAGAAAAAA [XGTACX_site5013]”: the “gcPBM binding intensity (ln)” value was determined as 8.65 ± 0.47. The same measure for “TATATTAAAATTTACTGTACTTTTTTTATTTTAAAA [XGTACX_site4077]”: 8.41 ± 0.35; for “AAAGATATAAATTACTGTACTAATGAAATTGGTAAA [XGTACX_site3582]”: 8.62 ± 0.19; for “AATCCTTAAAATTAACGTACGAAATGAATTTATTAA [XGTACX_site956]”: 8.45 ± 0.42. To “TGGAGGTCATTACACAGTACCCAGGAAATCTACGGA [XGTACX_site2004]” belongs 8.66 ± 0.51. The same measure for “AAACCGTGGGAGCACACACACACACCCACCCATATA [CACACA_site332]”: 8.57 ± 0.57.

Regarding “ACAAAACAAAACAAAAGTACACAAAATAAATAAGAT [XGTACX_site6497]”, the “gcPBM binding intensity (ln)” value is 9.01 ± 0.47.

In the case of “ATAATAACAAAATATTAACACACATAACATATTATA [CACACA_site8906]”, the “gcPBM binding intensity (ln)” value turned out to be 8.48 ± 0.26. On to “TTCTGTCAATATGCTTGTACGAAATATTTCGTAATT [XGTACX_site3182]”, for which the “gcPBM binding intensity (ln)” value came out at 8.87 ± 0.4.

Take “AAAATAAACCCAGACACACTCATTAAAAAATATCAT [CACACA_site5903]”: the “gcPBM binding intensity (ln)” value is 8.46 ± 0.39. The same measure for “TATTAATCCTTTTGCTTGGAAACATTCAAAAGGAAG [CACACA_negctrl_site1129]”: 8.25 ± 0.35; for “ATAAATAAATACTAGGCACACACACCGATATATATA [CACACA_site8649]”: 8.85 ± 0.38; for “ATATATATAAAATATGGTACAGAAAAAGTCTTGTTT [XGTACX_site8868]”: 9.23 ± 0.52. The same measure for “AATATAAAAAATAATACACACACATGGCGACAAAAT [CACACA_site8765]”: 9.11 ± 0.51. To “ATGTAAGTAATTATCTGTACACATAATATATATATA [XGTACX_site2618]” belongs 9.62 ± 0.13; to “TTTGAGTTACTATTCACACAAAATGGATAAATTAAT [CACACA_site5626]”, 8.41 ± 0.42. For the sequence “CACATAAATAATTAAACACACATTGTTCTAGACAAT [CACACA_site2378]”, the “gcPBM binding intensity (ln)” value worked out at 8.44 ± 0.4. Take “TAGTTTTGAAAACAAACACACAAAAAAAAAAAAAAA [CACACA_site1692]”: the “gcPBM binding intensity (ln)” value is 8.14 ± 0.39. On to “TATATAGGTATATATACACACAACGGTTATAAATAT [CACACA_site4759]”, for which the “gcPBM binding intensity (ln)” value amounted to 8.79 ± 0.48. To “TATAAAGACACGAAAACACACATATGTAAATATATA [CACACA_site8056]” belongs 8.92 ± 0.59; to AGGATAAAAGTTATGGTGCATTAACCTATTTAAATA, 9.02 ± 0.17. To “TACATATTACTATTCAGTACATATTTTTTTTTCATT [XGTACX_site7468]” belongs 8.4 ± 0.26. To “AATTTTATTACTTTTACACACCTATATATCATTCAT [CACACA_site7525]” belongs 8.78 ± 0.49; to “AAGAATAAGGAAAAATGTACAGAATGCACATATGAA [XGTACX_site4705]”, 8.67 ± 0.27. As for “TAGGGATTATACCACACACACATACACATAAATATA [CACACA_site3178]”, the “gcPBM binding intensity (ln)” value turned out to be 8.79 ± 0.42. The same measure for “ACCTTAAATAATACATGTACAAAAAAATTTATAATA [XGTACX_site1043]”: 9.64 ± 0.58; for “TTCTTTTTTTAAAGAAGTACTATATTTTAAATTATA [XGTACX_site5059]”: 8.12 ± 0.21.

For the sequence “TTTAAAATAAATTAATAGAACAAAAATAAAATGATT [GTGCAC_negctrl_site375]”, the “gcPBM binding intensity (ln)” value turned out to be 8.62 ± 0.49. The same measure for “ATGTATATATATATATGTACATATTTTTTATATGTA [XGTACX_site441]”: 8.29 ± 0.25; for “AAAAAAAATACAAAAAGTACAAAAAATACAAAAAAA [XGTACX_site8844]”: 8.52 ± 0.43; for “TATAAAAAAATAAAAGGAATATACTTGCAAAGGGTA [CACACA_negctrl_site1438]”: 9.02 ± 0.46. To “AACAATATATTGATATTATTTTAAGTGATTATATAT [XGTACX_negctrl_site205]” belongs 8.15 ± 0.35; to “AATAATAAAAAAAGTGCACACACATAATATATATAT [CACACA_site9100]”, 9.47 ± 0.099.

With “TTTTTTTTTGTTATGTTGCACTTTGCCATATTATTA [GTGCAC_site9844]”, the “gcPBM binding intensity (ln)” value amounted to 8.88 ± 0.34.

Regarding “TTTCAAATGATTAAGTGTACATGTTTGCTTGCTCTT [XGTACX_site4697]”, the “gcPBM binding intensity (ln)” value came out at 8.64 ± 0.54. To “TGATATTATAGATATACACACATGTATGTATTTATA [CACACA_site6758]” belongs 8.35 ± 0.49.

Turning to “AAATTTAGTAAAAAATGTACGTAAAATGTAAAATAT [XGTACX_site1314]”, the “gcPBM binding intensity (ln)” value was 8.96 ± 0.38. The same measure for “AAGGTAAACGGACACACACACATACAAAAAAAAAAA [CACACA_site5961]”: 8.7 ± 0.48; for “ATACTAACATTTTTTTGTACATATAACTATAAAATA [XGTACX_site1033]”: 8.61 ± 0.3. To “AATGATTTTGATTAACGTACGTACAAATATATATAT [XGTACX_site6604]” belongs 9.31 ± 0.057; to “TATATATTATATAAATAAATAAATATATATATTTAT [TGCATGCA_negctrl_site270]”, 8.12 ± 0.4; to “TTATTAAATATAAATATGTATCTTTTATGTTATATT [CACACA_negctrl_site306]”, 8.15 ± 0.26. The same measure for “AGACCTATGATATATACACACATATAAATAAATATA [CACACA_site6725]”: 8.45 ± 0.57; for “AATGTTAAACTATGATGTACGGTTAAAAATATAATT [XGTACX_site893]”: 8.66 ± 0.45; for “TAAATCCGCAGGCACACACACATATTAATAAAAAAA [CACACA_site3991]”: 8.59 ± 0.83. For “TATTTTACGACATACCAAAAAAAAAAAAAAAAAATA [CACACA_negctrl_site1254]”, the “gcPBM binding intensity (ln)” value is 8.13 ± 0.49. For the sequence “AAAAAAAAAAGACACACACACATAGACCTCCAATAG [CACACA_site7646]”, the “gcPBM binding intensity (ln)” value worked out at 8.7 ± 0.54. The same measure for “TCCTCATTTTATCATACACACTTGTTTATATGTGTG [CACACA_site6548]”: 8.66 ± 0.44; for “TATATATATATAATTTGTACACACAAATATGCATAT [XGTACX_site7297]”: 9.88 ± 0.18. The same measure for “ATATATAATAATTGTAGTACAATTAATAAATAAAAT [XGTACX_site3840]”: 8.61 ± 0.4; for “AATATTTATAAATTTACACACACACCCGTGAACATA [CACACA_site1910]”: 8.76 ± 0.37. Consider “TTATCATTTTAAATCACACACATATATAAATATGTA [CACACA_site7359]”, for which the “gcPBM binding intensity (ln)” value worked out at 8.28 ± 0.35. To “ATACGATTGCAGTCAAAAAGGAAAATATAAAAAAAG [XGTACX_negctrl_site124]” belongs 8.6 ± 0.6; to “TTAATAACGTAATGTAAATGTTTCATACCCTTTTTT [CACACA_negctrl_site988]”, 8.36 ± 0.43; to “TTTTTTTTTCTGTATACACACAAAATTTATTTTTTA [CACACA_site2873]”, 8.67 ± 0.41. To “ATATATATGTATGTATATATATATATATATGTTTGA [CACACA_negctrl_site107]” belongs 8.48 ± 0.26; to “AAAGAAGGGGGGGGAAAAAAAAATAAAAGAGGAAAA [XGTACX_negctrl_site92]”, 9.36 ± 0.042. The same measure for “ATAAAATAAAAACATGCACACTTTATTTTTTTTAAG [CACACA_site5545]”: 8.59 ± 0.18; for “GATAATAATAAGTGTACACATATATTTAGAAGAGTA [CACACA_site4245]”: 8.81 ± 0.25. For the sequence “AAAATGTATATTGGCGCATGTAAACAAATACTATAC [TGCATGCA_site385]”, the “gcPBM binding intensity (ln)” value came out at 9.2 ± 0.27.

As for “TCAAAATGTGACATAAAAGAAAAAAAAAAAAAAAAA [CACACA_negctrl_site1092]”, the “gcPBM binding intensity (ln)” value worked out at 8.03 ± 0.47.

Consider “TGGGGTATTAAAAAAACACACAAAAAAAATATAAAG [CACACA_site1915]”, for which the “gcPBM binding intensity (ln)” value was 8.55 ± 0.58. The same measure for “TTTTCTTTTTTCTTTTTAACTCTTACATAATAGGTG [CACACA_negctrl_site642]”: 8.54 ± 0.45; for “AAAAAAAAAAAAATTACACACATACCTATAAGAATA [CACACA_site7097]”: 8.36 ± 0.53; for “TAAAATGAATAAAATTGTACTTAATAATATTTTAAA [XGTACX_site5532]”: 7.96 ± 0.35.

Take “AATATATGTTAAAATGGTACACAATTATTATATATT [XGTACX_site6407]”: the “gcPBM binding intensity (ln)” value is 8.46 ± 0.4. The same measure for “AAAAAAAAAAAAAAGAGTACTTTTTTCACATTCATC [XGTACX_site8795]”: 8.38 ± 0.18; for “TTGTTTCAAAATTAAACACACACAAAAAAAAAAAAA [CACACA_site8856]”: 8.31 ± 0.47; for “TAAATCAAAAACAACAAGTCATATTAAAGATGGTAT [CACACA_negctrl_site1321]”: 8.73 ± 0.52. To CTTATAATATTACGGGTGCTATAAATACATTATATT belongs 8.81 ± 0.16; to “AAGGAAAACAGTAGGTGTACCAAACGTCCTAGGAAC [XGTACX_site3659]”, 9.05 ± 0.47; to “TATATTTATATCATCACACATTTTTTTTTTCTTTTT [CACACA_site6150]”, 8.41 ± 0.53. To “TAATATATAAATATATGTACATAATTAATAGGATAT [XGTACX_site237]” belongs 8.76 ± 0.38; to “GGATATATAAGATACACACACAAATTAAATATAAAA [CACACA_site7333]”, 8.65 ± 0.49; to “TATTCCTAATTTAAAAGTACATATATATATATATAT [XGTACX_site3008]”, 10.2 ± 0.54.

For the sequence TTTTTTAAATTTAAAGTGCATTATTATATATTTGTA, the “gcPBM binding intensity (ln)” value came out at 8.65 ± 0.15. For “CCAGTGTGCACCTTGCGTACATATTAAATTAATTAA [XGTACX_site3729]”, the “gcPBM binding intensity (ln)” value worked out at 9.06 ± 0.23. To “AAAAAAGAAATAAGGATACACACTATTGATAAAAGT [CACACA_site272]” belongs 8.84 ± 0.44; to “GGATAAGAAAAGAAGTGTACATATATATATATATAT [XGTACX_site8290]”, 10.2 ± 0.35; to “TTCTTTTAAAAATATATTTTAAGAAAATTTAATTTA [GTGCAC_negctrl_site237]”, 7.98 ± 0.4. To “TTTATTTTTTGAAACACACACAAAAAAAATGATACA [CACACA_site1881]” belongs 8.76 ± 0.49; to “ATAAAGCACACCGACACACACATATATATATATATA [CACACA_site1047]”, 10.1 ± 0.46; to “AAAAAAAAAATATATATATATATATATATATATATA [GTGCAC_negctrl_site467]”, 9.95 ± 0.53. The same measure for CAAAAAAAAAAACGGGTGCTAAATTTTATTTTTTAT: 8.57 ± 0.33. Consider “TATCATGGTTCGGATTGTACATATATGAATTTTTTT [XGTACX_site7478]”, for which the “gcPBM binding intensity (ln)” value turned out to be 8.55 ± 0.44.
